# Measured values taken from PubChem BioAssay AID504332 (National Center for Advancing Translational Sciences (NCATS), 2011).
# Out of some 350,000 compounds screened, about 31,000 (8.9%) were called active. The shares of active, inactive and inconclusive entries below differ from those in the screen. Calls follow the shape of the dose curve; as a rule, active = well fitted inhibition curve with a large enough effect; inconclusive = small, poorly fitted or top-dose-only effect; inactive = no such curve, though single readings can be large or run the other way. Potencies beside an inconclusive call are fits to weak or partial responses and may not hold up.
# Target: Histone-lysine N-methyltransferase EHMT2 (Homo sapiens) (UniProt Q96KQ7)
# Test: qHTS Assay for Inhibitors of Histone Lysine Methyltransferase G9a; also: nearly all actives have a fitted effect of over 75% in size
# Conditions: G9a H3K9 monomethylation, AlphaScreen, 2 h; activity, negative = inhibition: at 59 µM (top of the series) unless noted
# Procedure, shortened: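 Using a bead-based AlphaScreen, monomethylated H3K9 product from 2 h room-temperature reactions (G9a 20 nM, peptide 500 nM, SAM 20 uM) was detected with 0.5 ug/mL rabbit anti-H3K9me1 antibody.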
# % is scaled to controls: 0 for no effect and ±100 for the full control effect; potency is read from the fitted curve at half-maximal effect; tags tell the direction and shape of the fitted curve.
# Sequence of UniProt Q96KQ7 (Q96KQ7 whole entry, looked up): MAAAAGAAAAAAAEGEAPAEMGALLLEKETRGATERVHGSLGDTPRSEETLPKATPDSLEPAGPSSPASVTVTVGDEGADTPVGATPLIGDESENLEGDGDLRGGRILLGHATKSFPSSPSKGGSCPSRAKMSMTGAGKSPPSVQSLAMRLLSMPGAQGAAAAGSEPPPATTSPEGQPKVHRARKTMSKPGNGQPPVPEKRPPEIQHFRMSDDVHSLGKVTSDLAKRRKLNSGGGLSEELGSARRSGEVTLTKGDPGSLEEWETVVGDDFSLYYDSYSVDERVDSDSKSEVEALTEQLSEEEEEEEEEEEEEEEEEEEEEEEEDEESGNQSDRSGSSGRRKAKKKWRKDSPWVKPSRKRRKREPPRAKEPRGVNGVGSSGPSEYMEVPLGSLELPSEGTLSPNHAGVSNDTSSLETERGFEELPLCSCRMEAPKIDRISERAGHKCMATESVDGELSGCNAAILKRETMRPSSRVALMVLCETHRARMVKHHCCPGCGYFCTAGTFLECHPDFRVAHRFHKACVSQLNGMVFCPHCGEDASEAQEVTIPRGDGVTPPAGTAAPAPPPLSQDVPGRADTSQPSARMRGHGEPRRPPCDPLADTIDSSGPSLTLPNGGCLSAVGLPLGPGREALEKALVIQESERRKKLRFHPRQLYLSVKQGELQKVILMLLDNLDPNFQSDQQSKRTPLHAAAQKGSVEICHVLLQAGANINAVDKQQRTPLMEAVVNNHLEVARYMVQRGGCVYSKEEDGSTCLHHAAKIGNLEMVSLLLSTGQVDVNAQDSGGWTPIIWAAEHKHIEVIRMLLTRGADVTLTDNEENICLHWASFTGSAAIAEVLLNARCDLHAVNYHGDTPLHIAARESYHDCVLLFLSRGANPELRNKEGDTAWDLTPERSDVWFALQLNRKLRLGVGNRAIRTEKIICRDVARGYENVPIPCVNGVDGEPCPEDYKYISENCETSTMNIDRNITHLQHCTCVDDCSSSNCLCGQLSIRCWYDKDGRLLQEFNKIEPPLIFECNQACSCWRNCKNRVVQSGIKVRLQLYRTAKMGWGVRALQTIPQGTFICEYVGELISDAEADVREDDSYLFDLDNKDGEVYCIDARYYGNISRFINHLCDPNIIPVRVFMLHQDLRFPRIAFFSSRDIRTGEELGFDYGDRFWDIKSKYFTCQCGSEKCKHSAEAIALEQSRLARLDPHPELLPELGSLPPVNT
Structure (SMILES),Potency,"activity, negative = inhibition"
CCN(CC(=O)Nc1ccc(OC)cc1)C(=O)c1cc2c(s1)CCCCC2,"inconclusive: 89.1 µM [inhibitor, partial curve, poor fit]",–
COC(=O)C1=C(C)OC(N)=C(C#N)C1c1cc2cccc(C)c2nc1Cl (stereo not drawn),active: 22.4 µM,–
COc1cc(OC)c(/C=N/NC(=O)c2ccc(NC(C)=O)cc2)cc1Br,–,inactive: -3.6% [at 102 µM]
Clc1cccc(N/N=C/c2ccc(N3CCOCC3)cc2)c1,active: 31.6 µM,–
Cc1ccccc1CSc1n[nH]c(NS(=O)(=O)c2ccccc2)n1,"inconclusive: 3.98 µM [inhibitor, partial curve, poor fit]",–
COc1ccc(C(=O)OCC(=O)Nc2ccc(N3CCOCC3)cc2)cc1OC,"inconclusive: 31.6 µM [inhibitor, single point]",–
O=C(/C=C/c1cccc([N+](=O)[O-])c1)N1CCN(S(=O)(=O)c2cccs2)CC1,–,inactive: -32.7% [at 102 µM]
COC(=O)c1ccc(N2C(=O)CC(N(C)Cc3ccccc3)C2=O)cc1 (stereo not drawn),"inconclusive: 2.82 µM [inhibitor, partial curve, poor fit]",–
O=C(O)c1cccc(-n2cccc2/C=C2/SC(=O)N(CC(=O)N3CCCC3)C2=O)c1,active: 44.7 µM,–
O=C(N/N=C/c1cc(Br)c(O)c(Br)c1)c1cccnc1,"inconclusive: 5.62 µM [inhibitor, single point]",–
O=C(CN1CCCCCC1)NCCN1C(=O)S/C(=C\c2ccccc2Cl)C1=O,"inconclusive: 79.4 µM [inhibitor, single point]",–
O=C(N/N=C/c1ccc(F)cc1)c1cc(-c2ccccn2)nc2ccccc12,–,inactive: -0.576% [at 102 µM]
CC1CCN(Cc2ccc(NC(=O)CC3Oc4ccccc4NC3=O)cc2)CC1 (stereo not drawn),active: 50.1 µM,–
COc1ccc(NC(=O)CSCC(=O)Nc2cccc(S(=O)(=O)N3CCCCCC3)c2)cc1,"inconclusive: 89.1 µM [inhibitor, single point]",–
N/C(Cc1ccc(Cl)cc1)=N\OC(=O)Cc1ccc([N+](=O)[O-])cc1,"inconclusive: 15.8 µM [inhibitor, single point]",–
Cc1ccc2cccc(N=Cc3c(C)[nH]n(-c4ccccc4)c3=O)c2n1,active: 10 µM,–
CCN(CCO)Cc1cc(=O)oc2cc3c(cc12)CCC3,active: 39.8 µM,–
CCOC(=O)c1sc(NC(=O)c2c(OC)cccc2OC)nc1C,–,inactive: 6.07% [at 12.7 µM]
COc1ccc(CCN(C)C(=O)CN2C(=O)c3ccccc3S2(=O)=O)cc1OC,"inconclusive: 6.31 µM [inhibitor, partial curve, poor fit]",–
CCC[C@H]1CCCC/C=C\CCCC(=O)OCCN1C(=O)OC(C)(C)C,–,inactive: 5.32% [at 2.33 µM]
COc1cc(/C=C/C(=O)O)cc(S(=O)(=O)Nc2ccccc2Cl)c1OC,"inconclusive: 31.6 µM [inhibitor, single point]",–
CC1=C2C(=COC(C)C2C)C(=O)C(C(=O)O)=C1O (stereo not drawn),–,inconclusive: -51.9% [inhibitor] [at 2.33 µM]
Cc1[nH]c(=S)[nH]c(=O)c1CCOc1ccccc1,–,inconclusive: -69.1% [inhibitor]

Structure (SMILES),Potency,"activity, negative = inhibition"
COc1ccc(N2CCN(C(=O)/C(C#N)=C/c3ccccc3)CC2)cc1,"inconclusive: 44.7 µM [inhibitor, partial curve, poor fit]",–
CC(C)C1C(=O)NC(=S)N1S(=O)(=O)c1ccc(C(C)(C)C)cc1 (stereo not drawn),active: 3.16 µM,–
CC1CCN(C(=O)C2CCN(S(=O)(=O)c3cc(Cl)ccc3Cl)CC2)CC1,"inconclusive: 89.1 µM [inhibitor, partial curve, poor fit]",–
CCc1cc2c(SCC(=O)Nc3cc(C)on3)ncnc2s1,–,inactive: 11.7% [at 102 µM]
COC(=O)c1ccc(N2OC3(C)C=CC2CC3)cc1 (stereo not drawn),active: 44.7 µM,–
N=C1c2c(cc(=O)n3c2[nH]c2ccccc23)CN1CCN1CCOCC1,active: 35.5 µM,–
CCn1cc(S(=O)(=O)NC2CCCCC2)cn1,"inconclusive: 56.2 µM [inhibitor, partial curve, poor fit]",–
CCOC(=O)c1cc(-c2ccccc2)n(-c2cccc(C(=O)Nc3cccc(C(C)=O)c3)c2)c1C,"inconclusive: 25.1 µM [inhibitor, single point]",–
O=C(c1cccnc1)N1N=C(c2cccs2)CC1c1ccc(F)cc1 (stereo not drawn),"inconclusive: 31.6 µM [inhibitor, single point]",–
O=C(COC(=O)C1CC1)Nc1ncc(Cl)cc1Cl,"inconclusive: 56.2 µM [inhibitor, partial curve]",–
COc1cc(CNc2cccc(F)c2)cc(Br)c1O,"inconclusive: 12.6 µM [inhibitor, partial curve, poor fit]",–
CCOC(=O)c1csc(-c2ccc3c(c2)CCO3)n1,–,inactive: 10% [at 102 µM]
Cc1ccnc(NS(=O)(=O)Cc2ccccc2)c1,"inconclusive: 20 µM [inhibitor, partial curve, poor fit]",–
Cc1nc2ccc(S(=O)(=O)NCC(=O)NC(C)c3ccccc3)cc2s1 (stereo not drawn),"inconclusive: 4.47 µM [inhibitor, partial curve, poor fit]",–
COc1ccc(C)cc1NC(=O)CCS(=O)(=O)c1cc2c(cc1Cl)NC(=O)CO2,–,inactive: -2.37%
O=C(NCCc1ccc2c(c1)OCCO2)c1cccc(S(=O)(=O)N2CCCC2)c1,"inconclusive: 8.91 µM [inhibitor, partial curve, poor fit]",–
CCN(C(=O)COC(=O)/C=C/c1cccc([N+](=O)[O-])c1)c1c(N)n(Cc2ccccc2)c(=O)[nH]c1=O,"inconclusive: 4.47 µM [inhibitor, single point]",–
COc1ccccc1OCc1nc(C#N)c(N2CC(C)CC(C)C2)o1 (stereo not drawn),active: 44.7 µM,–
c1ccc(C2c3c(ccc4ccccc34)Oc3ncn4nc(-c5ccco5)nc4c32)cc1 (stereo not drawn),"inconclusive: 5.01 µM [inhibitor, full curve, poor fit]",–
O=S(=O)(Nc1ccn(-c2ccccc2)n1)c1ccc(Br)cc1,active: 14.1 µM,–
COc1ccccc1-n1c(SCC(N)=O)nc2c(c1=O)SCC2,"inconclusive: 100 µM [inhibitor, single point]",–
NC(=O)CC(NC(=O)c1ccc(Br)cc1)c1ccc(N2CCC(Br)CC2)c([N+](=O)[O-])c1 (stereo not drawn),–,inactive: -4.26% [at 12.7 µM]
CCOC(=O)N1CCN(C(=S)Nc2cc(S(=O)(=O)N3CCOCC3)ccc2Cl)CC1,"inconclusive: 44.7 µM [inhibitor, partial curve]",–

Structure (SMILES),Potency,"activity, negative = inhibition"
O=C(NCCCN1CCN(c2ccccc2F)CC1)c1cc2c(s1)-c1ccccc1OC2,–,inactive: 3.14%
Cc1ccc(/C=C(\NC(=O)c2ccccc2)C(=O)N2CCCCC2)cc1,"inconclusive: 89.1 µM [inhibitor, single point]",–
FC(F)Sc1nc(-c2ccccc2)c(-c2ccccc2)n1C(F)F,active: 35.5 µM,–
C=CCN1C(=Nc2cccnc2)SCC1(O)c1ccc(C)cc1 (stereo not drawn),active: 44.7 µM,–
C#CCOCCOCCOCCNc1nc(N2CCN(C(=O)[C@H]([C@@H](C)CC)n3cc([C@@H](N)Cc4ccc(O)cc4)nn3)CC2)nc(N2CCN(C(=O)[C@H](Cc3cc4ccccc4[nH]3)n3cc([C@@H](N)CC(C)C)nn3)CC2)n1,–,inactive: -38.3% [at 2.33 µM]
Cc1ccc(N2CCN(c3ccc(C)cc3)C2c2ccccn2)cc1,"inconclusive: 28.2 µM [inhibitor, single point]",–
COc1ccccc1N1CCN(C(=O)CSc2nnc(NC(=O)C3CC3)s2)CC1,–,inactive: -7.36% [at 102 µM]
Cc1cccc(C)c1Nc1c(-c2ccc(N3CCOCC3)cc2)nc2cnccn12,"inconclusive: 79.4 µM [inhibitor, partial curve, poor fit]",–
CCOC(=O)c1cccnc1SCC(=O)N(C)c1ccccc1,"inconclusive: 79.4 µM [inhibitor, partial curve, poor fit]",–
CCCCN(C)CCCNC(=O)c1cc(=O)[nH]c2ccc(S(=O)(=O)N3CCCCC3C)cc12 (stereo not drawn),"inconclusive: 89.1 µM [inhibitor, partial curve, poor fit]",–
COc1ccc(N(C(=O)c2ccco2)C(C(=O)NC2CCCC2)c2cccs2)cc1OC (stereo not drawn),"inconclusive: 39.8 µM [inhibitor, single point]",–
O=C(Nc1ccc2c(c1)OCO2)C1CC(=O)N(c2ccc(F)cc2)C1 (stereo not drawn),"inconclusive: 89.1 µM [inhibitor, single point]",–
CCc1cccc(NC(=O)CCS(=O)(=O)c2ccc3nc(C)sc3c2)c1,active: 11.2 µM,–
Cc1ccc(NC(=O)CN2CCN(C)CC2)cc1S(=O)(=O)N1CCOCC1,"inconclusive: 12.6 µM [inhibitor, full curve]",–
CN1CCN(c2ccc(S(=O)(=O)N3CCCCC3)cc2NC(=O)Cc2c(F)cccc2Cl)CC1,active: 44.7 µM,–
COC(=O)c1ccc(OCC2c3cc(OC)c(OC)cc3CCN2C(=O)c2ccco2)cc1 (stereo not drawn),active: 50.1 µM,–
Cc1nnc(N2C(=O)C(=O)/C(=C(/O)c3ccc4c(c3)OCCO4)C2c2ccc(F)cc2)s1 (stereo not drawn),active: 44.7 µM,–
Cc1cccc(-n2ccnc2SCC(=O)Nc2ccc3c(c2)OCO3)c1,"inconclusive: 22.4 µM [inhibitor, single point]",–
CCCCNC(=O)/C(=C/c1ccccc1)NC(C)=O,–,inactive: -9.72%
Cc1cc2c3ccccc3ncn2n1,–,inactive: 14.8% [at 102 µM]
Cc1ccc(C2/C(=C(/O)c3cnn(-c4ccccc4)c3C)C(=O)C(=O)N2CCN2CCOCC2)o1 (stereo not drawn),"inconclusive: 3.16 µM [inhibitor, single point]",–
COC(=O)c1nnn(CC(=O)Nc2cccc(OC)c2)c1C(=O)OC,"inconclusive: 89.1 µM [inhibitor, single point]",–
